# Laboratory results: PubChem BioAssay AID2100 (National Center for Advancing Translational Sciences (NCATS), 2009)
# Values joined by “and” are separate entries in the source; they are usually repeats but may differ in a detail not shown here. Identical values can stand only once. The whole screen tested about 300,000 compounds, of which about 1,200 (0.4%) were called active. The shares of active, inactive and inconclusive entries below differ from those in the screen. The call rests on the fitted dose curve; in most records, active means well fitted inhibition curve with a large enough effect; inconclusive means small, poorly fitted or top-dose-only effect, or another doubt; inactive means no such curve, though single readings can be large or run the other way. A potency beside an inconclusive call is a rough fit, not a confirmed value.
# Molecular target: Lysosomal alpha-glucosidase (Homo sapiens) (UniProt P10253)
# Test: qHTS Assay for Inhibitors and Activators of Human alpha-Glucosidase Cleavage of Glycogen
# Conditions: recombinant GAA, glycogen substrate, Amplex Red glucose oxidase fluorescence; series mostly up to 76.4 µM
# Method in brief: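 Natural-substrate format: glycogen cleavage by 4 nM human enzyme, glucose read by Amplex Red coupling (Ex 573, Em 610 nm). Normalized to enzyme and no-enzyme controls.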
# Potency means the concentration at half of the fitted maximal effect.
row,Compound,Potency
1,S=c1[nH]nc(Nc2ccccc2Cl)s1,"inconclusive: 35.5 µM [inhibitor, single point]"
2,CCOc1cccc(/C(O)=C2/C(=O)C(=O)N(CCOC)C2c2ccc(C)o2)c1 (stereo unspecified),"inconclusive: 8.84 µM [inhibitor, single point]"
3,CCOc1cccc(/C=C2\NC(=S)N(c3ccccc3)C2=O)c1O,"inconclusive: 3.98 µM [inhibitor, full curve, poor fit]"
4,O=C(NNC(=S)Nc1ccccc1)Nc1ccccc1,"inconclusive: 3.55 µM [inhibitor, partial curve, poor fit]"
5,COc1ccc(N2CSC3=C(C#N)C(c4cccs4)CC(=O)N3C2)cc1 (stereo unspecified),"inconclusive: 31.6 µM [inhibitor, single point]"
6,COCCCNC(=S)NNC(=S)Nc1ccccc1,active: 6.26 µM
7,COc1ccc(N2CN=C3SCC(=O)N3C2)cc1,"inconclusive: 39.5 µM [inhibitor, single point]"
8,COc1cc(/C=N/NC(=O)Cn2nnc3ccccc32)ccc1O,"inconclusive: 31.6 µM [inhibitor, partial curve]"
9,CC(=O)c1cc2cc(O)ccc2o1,inactive
10,O=C(CNC(=O)c1ccccc1)OCC(=O)c1cccs1,inactive
11,CC(C)(C)c1ccccc1OCCOCCN1CCCCCC1,"inconclusive: 35.5 µM [activator, single point]"
12,CC1CCC(C(C)C)C2=C1C(C#N)(C#N)C(C#N)(C#N)C(c1ccccc1)N2 (stereo unspecified),"inconclusive: 31.4 µM [inhibitor, single point]"
13,COc1cccc(CNc2nc3ccccc3n2C)c1O,"inconclusive: 28.2 µM [inhibitor, partial curve]"
14,O=c1cc(CO)oc(C(Nc2ccccn2)c2cccc(F)c2)c1O (stereo unspecified),"inconclusive: 44.7 µM [inhibitor, partial curve, poor fit]"
15,Cc1cccc(C)c1NC(=O)CSCC(=O)c1ccc(O)c(O)c1,active: 11.1 µM
16,CN(C)S(=O)(=O)c1ccc(NC(=O)CN2CCCc3ccccc32)cc1,"inconclusive: 19.8 µM [activator, single point]"
17,COCCNc1nnc(SCC(=O)c2ccc3c(c2)OCO3)s1,"inconclusive: 50.1 µM [inhibitor, single point]"
18,Cc1ccc(-c2nc3ccc(Br)cn3c2Nc2ccc3c(c2)OCO3)o1,inactive
19,CCN(CC)CCNC(=O)CCCCn1c(=S)[nH]c2c([nH]c3ccc(OC)cc32)c1=O,active: 25.1 µM
20,Cn1c(=O)[nH]c(=O)c2c1nc(N/N=C/C(Br)=C/c1ccccc1)n2CCO,"inconclusive: 9.92 µM [inhibitor, partial curve]"
21,O=C(NNc1nc(-c2ccccc2)cs1)c1ccccc1,"inconclusive: 28 µM [inhibitor, single point]"
22,COc1ccc(-n2cc(C(=O)Nc3ccccc3C#N)c3ccccc3c2=O)cc1,inactive
23,CC(=O)NNC(=S)Nc1cccc(F)c1,"inconclusive: 24.9 µM [inhibitor, single point]"
24,COc1ccc(CCN2C(=O)CC(Nc3ccc(N4CCOCC4)cc3)C2=O)cc1OC (stereo unspecified),active: 15.7 µM

row,Compound,Potency
1,CCn1ccnc1CN(C)Cc1cn(-c2cc(C)ccc2C)nc1-c1ccccc1,inactive
2,CCc1ccccc1N1C(=O)CC(N2CCc3ccccc32)C1=O (stereo unspecified),"inconclusive: 4.43 µM [inhibitor, full curve]"
3,COc1cc(-c2nc3cnccn3c2Nc2ccc(C(C)C)cc2)ccc1O,"inconclusive: 15.7 µM [inhibitor, partial curve] and inconclusive: 35.5 µM [inhibitor, partial curve]"
4,CCCOc1ccc(CNC(=O)Cn2c(=O)oc3ccccc32)cc1,"inconclusive: 20 µM [inhibitor, partial curve]"
5,O=C(c1cccc(N2C(=O)c3ccccc3C2=O)c1)N1CCCCCC1,"inconclusive: 5.62 µM [inhibitor, full curve, poor fit]"
6,COc1ccc(/C=N/Nc2nnc(C)n2N)cc1OC,"inconclusive: 20 µM [inhibitor, partial curve]"
7,Cc1ccc2nc(C)cc(N/N=C/c3ccc(F)cc3)c2c1,inactive
8,CC1(C)CC(=O)C=C(Nc2ccc(O)c(C(=O)O)c2)C1,"inconclusive: 35.5 µM [inhibitor, single point]"
9,Nc1nc(SCC(=O)c2ccc([N+](=O)[O-])cc2)n[nH]1,"inconclusive: 28.2 µM [inhibitor, single point]"
10,C(=N/Nc1nccs1)/c1cccnc1,"inconclusive: 3.98 µM [inhibitor, full curve]"
11,Cc1c(C)n(Cc2ccccc2)c2ccc(C(=O)NCCN3CCOCC3)cc12,inactive
12,CCN1CCCc2cc(CN(CCN3CCOCC3)C(=S)Nc3ccccc3C)ccc21,"inconclusive: 8.84 µM [inhibitor, partial curve]"
13,CCOC(=O)C(C#N)C(c1cccnc1)c1c(C)[nH][nH]c1=O (stereo unspecified),"inconclusive: 19.8 µM [inhibitor, single point]"
14,O=C1/C(=C/c2ccncc2)SC(=S)N1Nc1ccccc1,"inconclusive: 31.6 µM [inhibitor, partial curve]"
15,CCOC(=O)c1c(/N=C/c2cc(C)ccc2O)sc2c1CCC2,active: 10 µM
16,COCCNc1oc(-c2ccc(C)cc2)nc1C#N,"inconclusive: 19.8 µM [inhibitor, single point]"
17,CC1=CC(=O)c2c(O)ccc(O)c2C1=O,"inconclusive: 11.2 µM [inhibitor, partial curve]"
18,Cc1cc([N+](=O)[O-])cc2c1NCC1CC=CC21 (stereo unspecified),inactive
19,COCCNC(=S)NN=C1CCCCCC1,"inconclusive: 50.1 µM [inhibitor, single point]"
20,CCN(CC)c1ccc(/C=N/Nc2nn[nH]n2)cc1,"inconclusive: 14.1 µM [inhibitor, partial curve]"
21,CC1(C)CC(=O)C(C(C2=C(O)CC(C)(C)CC2=O)c2ccc(O)c([N+](=O)[O-])c2)=C(O)C1,inactive
22,CCc1cc(/C(Cc2cscn2)=N\O)c(O)cc1O,"inconclusive: 35.5 µM [inhibitor, partial curve]"
23,O=C(Cn1c(=O)n(-c2ccc(Cl)cc2)c(=O)c2sc3ccccc3c21)NC1CCCCC1,inactive
24,CCOC(=O)CNC(=S)n1ncnc1N,"inconclusive: 14 µM [inhibitor, partial curve]"

row,Compound,Potency
1,O=C(COc1cc2oc(=O)cc(-c3ccccc3)c2cc1Cl)NC(Cc1c[nH]c2ccc(O)cc12)C(=O)O (stereo unspecified),"inconclusive: 2 µM [inhibitor, full curve]"
2,CC(=O)c1ccc2c(c1)C1C=CCC1C(c1ccncc1)N2 (stereo unspecified),"inconclusive: 39.8 µM [activator, single point]"
3,COc1cc(/C=N/NC(=O)C(=O)N2CCCC2)ccc1O,"inconclusive: 20 µM [inhibitor, partial curve]"
4,Cc1c(C(=O)NNc2cc(=O)n(C)c(=O)n2C)cccc1[N+](=O)[O-],"inconclusive: 17.8 µM [inhibitor, partial curve]"
5,Oc1ccc(N2Cc3ccccc3C2)cc1,"inconclusive: 10 µM [inhibitor, partial curve]"
6,COc1cc(C2C(C#N)=C(C)NC3=C2C(=O)CC(C)(C)C3)cc(OC)c1O (stereo unspecified),active: 12.5 µM
7,Cc1ccc(-c2nc(Nc3cccc(O)c3)c3ccccc3n2)cc1,inactive
8,CC1=NN(C(=O)COc2ccccc2)C(O)(c2cccnc2)C1 (stereo unspecified),"inconclusive: 14.1 µM [inhibitor, partial curve]"
9,COc1ccc(-c2cnnc(N/N=C/c3ccc(O)c(O)c3)n2)cc1,active: 11.2 µM
10,C=CCNc1oc(-c2cccs2)nc1C#N,"inconclusive: 19.8 µM [inhibitor, partial curve]"
11,CCOC(=O)C1=C(C)NC2=C(C(=O)c3ccccc32)C1c1ccc([N+](=O)[O-])o1 (stereo unspecified),"inconclusive: 50.1 µM [inhibitor, single point]"
12,COc1ccc(C(=O)/C=C/c2cc(OC)c(O)c(OC)c2)c(F)c1,"inconclusive: 8.91 µM [inhibitor, full curve]"
13,CCOc1ccc(NC(=O)c2noc3c2CSc2ccccc2-3)cc1,inactive
14,CC1=CCC(/C=N\Nc2nnc3c(n2)[nH]c2ccccc23)CC1 (stereo unspecified),"inconclusive: 14.1 µM [inhibitor, partial curve]"
15,CC/C(C)=N\N=C\c1c(O)n(CC)c2cc(C3=NNC(=O)CC3)ccc12,"inconclusive: 5.62 µM [inhibitor, full curve]"
16,CC(=O)c1ccc(N2CCN(C(=O)CCC(=O)c3cccs3)CC2)cc1,inactive
17,CCCOC(=O)c1ccc(Nc2nc3ccccc3nc2-n2nc(C)cc2C)cc1,inactive
18,Cc1c(Cl)cccc1NC(=O)CSCc1cc(=O)[nH][nH]1,"inconclusive: 28.2 µM [inhibitor, single point]"
19,NNc1nc(N)c2c(n1)-c1ccccc1CC21CCCC1,"inconclusive: 44.7 µM [activator, partial curve]"
20,CC(=O)N1CCN(c2ccc(NS(=O)(=O)c3ccc4c(c3)CC(=O)N4)cc2)CC1,"inconclusive: 75.2 µM [inhibitor, single point]"
21,NC(=O)c1cc2c3ccccc3ccn2c1-c1ccccc1,"inconclusive: 31.6 µM [inhibitor, partial curve]"
22,COc1ccc(Nc2nc(-c3c(C)nc4ncccn34)cs2)cc1,"inconclusive: 11.1 µM [inhibitor, partial curve]"
23,Cc1ccccc1S(=O)(=O)NNC(=O)C(=O)NNc1ccccn1,active: 3.55 µM
